Consider 52 molecules from PMC12040169 (PLOS Biology, 2025).

This is one part of the list.

For the experiment, the system named is T1, C. trachomatis L2/434/Bu expressing GFP (CTL2-GFP).
T1 construct: L2/434/Bu GFP intracellular growth in HeLa cells
Also noted: species or system HeLa; C. trachomatis total inclusion area by high-content imaging, normalised to DMSO. To be noted: total inclusion area; 28.5 h, 10 µM; inhibitor. The gist of the method:
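Post-fluorescence-read fixation, DNA staining with Hoechst and high-content imaging; GFP inclusion area and number per well, and nuclei counts, used as proxies for bacterial growth and host viability.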
Turning to `COCCNC(=O)C(C)SCc1ccccc1` (stereo not shown) [CBK028889], the “% of control remaining” value is on record as 56.0356.
Turning to `c1cnc2c(c1)cc([C@H]1CCCO1)n2CCN1CCCC1` [CBK282289], the “% of control remaining” value turned out to be 89.302.
Next, `Cc1ccc(NS(=O)(=O)c2cc(C(=O)N3CCN(Cc4ccc5c(c4)OCO5)CC3)ccc2C)cc1` [CBK268521]: 80.0687; `O=S(=O)(c1ccc2c(c1)nc1n2CCC1)N1CCOCC1` [CBK019200]: 49.8975; `Nc1cccc(-c2nc(-c3cccnc3)cnc2N)c1` [CBK063906]: 125.823.
Then `O=C(CSc1ccc(-c2ccncc2)nn1)Nc1ccc(F)cc1` [CBK287297], with 105.185; and `COc1ccc(C2=NN(c3ccc([N+](=O)[O-])cc3)C(=O)/C2=C\NCCN2CCOCC2)cc1` [CBK264563], with 100.157; and `COc1ccccc1NC(=O)c1c(NC(=O)Cc2ccccc2)sc2c1CCC(C(C)(C)C)C2` (stereo not shown) [CBK264102], with 79.9135.
Next, `CC1CCc2c(sc(NC(=O)c3cccs3)c2C(=O)N2CCOCC2)C1` (stereo not shown) [CBK307101]: 47.4038; `CCN(CC)CCCNC(=O)N(CCC#N)C1CCCCC1` [CBK156377]: 61.6693.
Consider `Cc1cccc2c3c([nH]c12)C1(CCCN(CCc2ccc([N+](=O)[O-])cc2)C1)NCC3` (stereo not shown) [CBK039558], for which the “% of control remaining” value is 69.6256.
Next, `COCC(=O)N1CCc2sccc2C1c1ccc(NCc2ccc(F)cc2F)cc1` (stereo not shown) [CBK286460]: 107.984.
Next, `O=C(Nc1ccccc1Oc1ccc(F)cc1)c1ccc(Cn2cncn2)cc1` [CBK285587]: 102.987.
Regarding `O=C(CC1CCN(C(=O)CC2CCCCC2)CC1)NCc1ccccc1N1CCCC1` [CBK285962], the “% of control remaining” value turned out to be 126.999.
Next, `O=C1Nc2cc(Cl)ccc2C(=O)N2CC[C@H](NC(=O)N3CCOCC3)[C@@H]12` [CBK289340]: 112.179; `COc1cccc(NC(=S)NCCCN2CCOCC2)c1` [CBK264548]: 79.8653.
Then `CN1CCN(CCOC(=O)N2CCCC(C(F)(F)F)C2)CC1` (stereo not shown) [CBK200207], with 101.233; and `C=CCNC(=O)N[C@H]1[C@H](O)[C@@H](N2CCN(c3ccccc3OC)CC2)[C@@H]2OC[C@H]1O2` [CBK288818], with 101.388.
Next, `Fc1ccc(-c2nccnc2OCc2ccccn2)cc1` [CBK106894]: 95.4718; `O=c1[nH]c2ncc(-c3ccncc3)nc2n1C1CCCC1` [CBK064972]: 114.112.
As to `C[C@@H]1CN(C(=O)c2nccc3ccccc23)C[C@H](C)O1` [CBK200233], the “% of control remaining” value amounted to 107.174.
Regarding `O=C(NC(c1ccc2ccccc2n1)c1cccs1)C1CCNCC1` (stereo not shown) [CBK148331], the “% of control remaining” value amounted to 91.9411.
Next, `O=C(CN1CCC(c2ccc(F)cc2)CC1)N1CCCCC1` [CBK283640]: 80.0686; `COc1ccc(C(=O)c2sc3nc(C)cc(C)c3c2N)cc1` [CBK115362]: 104.617; `NC(=O)CN1CCC(Oc2nccnc2OCc2cccnc2)CC1` [CBK083165]: 55.7043.
Next, `Cc1cc(-c2nc3ncccc3o2)ccc1NC(=S)NC(=O)c1cc2ccccc2o1` [CBK268922]: 86.7834; `COc1ccc(-c2cc(C(=O)Nc3cnc4ccccc4c3)cnc2-c2cccc(C)c2)cn1` [CBK037425]: 88.3052.
Then `CNCC1CCN(S(=O)(=O)c2ccc(OCc3ncnn3C)cc2)CC1` [CBK304309C], with 76.7004.
On to `O=C1COc2ccccc2C/C=C/C[C@H]2CN(C(=O)CN3CCCCCC3=O)CC[C@H]2N1` [CBK292116], for which the “% of control remaining” value was found to be 95.654.
Then `Cc1cc(C)nc(SCc2csc(N)n2)n1` [CBK019838], with 74.8065; and `O=C(CCNC(=O)c1ccc(Br)o1)NCc1ccccc1Cl` [CBK294454], with 92.8998; and `CSCCOc1nc2ccccc2nc1N1CCCC1` [CBK115770], with 107.532.
Consider `Cc1nc2c(OCC(=O)C(C)(C)C)cccn2c1N(C)C(=O)C1CCCCC1` [CBK147145], for which the “% of control remaining” value was 99.9216.
Regarding `CC(=O)N1CCC(N2C[C@H](O)C[C@H]2c2nc(C3CC3)no2)CC1` [CBK288845], the “% of control remaining” value worked out at 107.091.
In the case of `CCOc1ccccc1C(=O)N1CCC(Cc2ccccc2-c2ccccc2)(C(N)=O)CC1` [CBK285910], the “% of control remaining” value is given as 117.241.
Consider `C[C@@H]1CN(Cc2ccccc2)C[C@H](C)N1` [CBK001569], for which the “% of control remaining” value is 98.0043.
Next, `COc1cccc(C(=O)Nc2nnc(-c3ccco3)o2)c1` [CBK287421]: 73.7305; `Cc1sc(-c2c(F)cccc2F)nc1O` [CBK067729]: 52.8178; `Cc1ccccc1-c1nnc2n1CCCCC2` [CBK200076A]: 106.95.
Then `Cc1ncsc1CCOc1ncccc1C(F)(F)F` [CBK115781], with 85.4313; and `Oc1cc2cccnc2nc1-c1ccc(OCc2ccccc2)c(F)c1` [CBK073708], with 94.5633.
Next, `CSc1ccc(-c2cnc3nc(N)ccc3c2)cc1` [CBK081169]: 93.3134; `CN(C)C(=O)CN1C(=O)[C@H]2CCCN2C(=O)c2ccccc21` [CBK282854]: 120.056; `COc1cc(CNc2cncc(-c3ccc(N)cc3)n2)cc(OC)c1OC` [CBK065483]: 67.8883.
Turning to `Nc1ncc(-c2ccoc2)nc1NCc1ccncc1` [CBK063656], the “% of control remaining” value amounted to 83.9189.
For the molecule `CCCNC(=O)Cn1cnc2sc(C)c(C)c2c1=O` [CBK305863], the “% of control remaining” value was 52.2228.
Then `CCOc1cc(/C=C2\SC(=N)NC2=O)ccc1OCc1ccc(Br)cc1` [CBK263813], with 108.33; and `CCCCN(C)c1c(C)nc2c(Oc3nc4ccccc4s3)cccn12` [CBK147192], with 80.0268.
As for `Cn1nc(C2CCN(C(=O)c3ccccc3F)CC2)c2cccnc21` [CBK285019], the “% of control remaining” value is reported as 82.9747.
Next, `CCCn1ccnc1CNc1nc(C)nc2c1c(C)nn2C` [CBK307459]: 77.2294; `CC(C)(C)NS(=O)(=O)c1ccc(NC(=O)COc2ccc3ccccc3c2Br)cc1` [CBK267015]: 118.262.
Then `C1C/C(=N/N=C2\CCCc3nonc32)c2nonc2C1` [CBK006721], with 41.3707.
